These results are taken from PubChem BioAssay AID1159614 (National Center for Advancing Translational Sciences (NCATS), 2016).

Among all 45,000 compounds or so, about 65 (0.1%) were called active. Calls follow the shape of the dose curve; as a rule, active = well fitted activation curve with a large enough effect; inconclusive = small, poorly fitted or top-dose-only effect; inactive = no such curve, though single readings can be large or run the other way. Some of the results follow.

Chain of UniProt P54803 (P54803 whole entry, looked up): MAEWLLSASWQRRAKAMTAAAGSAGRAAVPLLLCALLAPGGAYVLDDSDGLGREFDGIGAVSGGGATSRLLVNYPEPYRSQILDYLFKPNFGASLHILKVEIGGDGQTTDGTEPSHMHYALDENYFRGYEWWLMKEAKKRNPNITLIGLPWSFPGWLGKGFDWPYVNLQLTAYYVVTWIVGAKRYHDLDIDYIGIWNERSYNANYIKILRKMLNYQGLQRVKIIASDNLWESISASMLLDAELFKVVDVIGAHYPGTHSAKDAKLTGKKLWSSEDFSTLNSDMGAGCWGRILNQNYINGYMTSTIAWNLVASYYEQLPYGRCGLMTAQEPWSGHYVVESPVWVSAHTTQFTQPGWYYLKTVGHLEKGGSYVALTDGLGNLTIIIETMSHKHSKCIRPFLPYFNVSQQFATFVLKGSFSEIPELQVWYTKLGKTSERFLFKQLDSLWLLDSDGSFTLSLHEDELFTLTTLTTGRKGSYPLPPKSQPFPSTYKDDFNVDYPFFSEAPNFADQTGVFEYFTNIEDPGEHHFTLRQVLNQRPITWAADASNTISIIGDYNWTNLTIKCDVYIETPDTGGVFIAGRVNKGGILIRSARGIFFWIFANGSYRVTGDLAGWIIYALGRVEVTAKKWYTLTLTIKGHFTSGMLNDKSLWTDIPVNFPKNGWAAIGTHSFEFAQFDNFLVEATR

For this assay, the target named is Galactocerebrosidase (Homo sapiens) (UniProt P54803). As to the kind of experiment: A Novel Cell-Based Assay to Identify Small Molecules for B -Galactocerebrosidase. Also: 0% is about no effect; nearly all actives have a fitted effect of over 65% in size. As to conditions: 145M-Twi-hGALC-G270D cells (Twitcher mouse brain line with human GALC G270D), HMU-beta-Gal fluorescence, 48 h; series mostly up to 57.5 µM; activation: at the top concentration. A digest of the protocol:
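Brain-derived Twitcher mouse 145M-Twi cells stably expressing human GALC-G270D or wild-type GALC, treated live, then residual GALC activity read by fluorescence of HMU-b-Gal substrate (0.1 mM final) in citrate-phosphate buffer pH 5.2 with sodium taurocholate. Signal increase indicates enhancement.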
Take `CCn1cc(S(=O)(=O)c2ccc(C)cc2C)c(=O)c2cc(F)c(N3CCCCC3)cc21`: the “activation” value was inactive: -13.6%. In the case of `CCc1cccc(NS(=O)(=O)c2cc(-c3cnc(C)o3)ccc2OC)c1`, the “activation” value was inactive: -6.97%. For the compound `CCOC(=O)Cn1c(=O)n(CC2CCCO2)c2nc(-c3c(F)cccc3Cl)nc(C(N)=O)c21` (stereo not drawn), the “activation” value was inactive: -25.5%.

Regarding `C[N+]1(C)CCCC(OC(=O)C(O)(c2ccccc2)c2ccccc2)C1` (stereo not drawn), the “activation” value was inactive: -6.4%. Take `CCc1ccccc1NS(=O)(=O)c1cc(Br)cc2c1N(C(=O)C1CC1)CC2`: the “activation” value was inactive: -7.77%.

As to `CCN(CC)CCCNC(=O)CN1C(=O)COc2ccc(S(=O)(=O)N3CCC(C)CC3)cc21`, the “activation” value was inactive: -9.49%. For the compound `CC(Nc1oc(-c2ccc(COc3ccc(Cl)cc3)o2)nc1C#N)c1ccccc1` (stereo not drawn), the “activation” value is inactive: -13.1%. Then `COCCNC(=O)CSc1nnc2[nH]c(=O)cc(C)n12`, with inactive: -9.66%; and `O=C(NCc1ccccc1)c1ccc2c(c1)nc1n2CCOC1`, with inactive: -8.74%.

Turning to `CCN(CC)c1ccc(NC(=O)CN2C(=O)c3cccnc3Oc3ccc(Cl)cc32)c(C)c1`, the “activation” value was inactive: -8.49%. Then `N#C/C(=C1\SCC(c2ccccc2Cl)S1)n1ccnc1` (stereo not drawn), with inactive: -18.9%; and `CCn1c(=O)c2sccc2n2c(CCCC(=O)Nc3ccc(OC)c(OC)c3)nnc12`, with inactive: -7.38%; and `COc1ccc(C(=O)Nc2nc3n(n2)C(c2ccc(F)cc2)C=C(c2ccc(Cl)cc2)N3)cc1` (stereo not drawn), with inactive: -11.1%. Take `CSc1ncc(Cl)c(C(=O)N(Cc2ccc(C(C)C)cc2)C2CCS(=O)(=O)C2)n1` (stereo not drawn): the “activation” value is inactive: -12.6%. For `Cc1ccccc1Cn1c(SCc2ccc(C(=O)NCCc3ccccc3)cc2)nc2ccncc21`, the “activation” value is inactive: -15.4%. As for `Cc1cc(C)n(C(C)CC(=O)Nc2ccc(C)c(F)c2)n1` (stereo not drawn), the “activation” value is inactive: -22.8%.

On to `CCCCC1CCC(CCCC(C)CCC(=O)O)CC1` (stereo not drawn), for which the “activation” value was inactive: -15.8%. The result for `COc1ccc(-n2cc(-c3ccc4c(c3)OCO4)n(CC(=O)Nc3cccc(C)c3)c2=O)cc1` reads inactive: -19.7%. As for `Cc1cccc(NC(=O)Cn2cc(S(=O)(=O)Cc3ccccc3Cl)c3ccccc32)c1`, the “activation” value was inactive: 0.839%.

In the case of `O=C(CC1N=C2c3ccccc3N=C(SCC(=O)Nc3ccc(F)cc3)N2C1=O)NCc1ccc2c(c1)OCO2` (stereo not drawn), the “activation” value is inactive: -8.27%. As to `COc1cccc(-c2n[nH]c3c2C(c2ccccn2)N(C)C3=O)c1` (stereo not drawn), the “activation” value is inactive: -11.5%. Regarding `O=C(C1COc2ccccc2O1)N(Cc1cccnc1)c1nc2c(F)cc(F)cc2s1` (stereo not drawn), the “activation” value is inactive: -6.04%.

In the case of `Cc1ccc(C(=O)Nc2nnc(SCc3cc(=O)c4c(C)ccc(C)c4[nH]3)s2)cc1`, the “activation” value is inactive: 3.43%. The result for `O=C(Nc1ccc2nn(-c3ccc(F)cc3)nc2c1)c1cccc2c(Cl)cccc12` reads inactive: -18.9%; that for `COc1cccc(C(=O)N2CCC(c3nc4ccccc4s3)CC2)c1`, inactive: -18.5%; that for `CCOc1ccccc1NC(=O)c1ccc2c(c1)CCCN2S(C)(=O)=O`, inactive: -13.6%. The result for `COCCNc1cc(N2CCN(C3CCCCC3)CC2)c2noc3c2c1C(=O)c1ccccc1-3` reads inactive: -14.3%; that for `Cc1cc(C)cc(OCC(=O)Nc2ccc(-c3nc4ncccc4o3)cc2C)c1`, inactive: -3.29%. The result for `COC(=O)c1cccc(Nc2c(-c3cc(Br)ccc3O)nc3nc[nH]n23)c1` reads inactive: -11.9%. Consider `CCOc1ccccc1NC(=O)c1c(NCc2ccc(OC)c(OC)c2OC)sc2c1CCC(C)C2` (stereo not drawn), for which the “activation” value is inactive: 18.7%.

On to `CCc1nnc(SCc2nc(-c3ccccc3F)oc2C)c2cc3sccc3n12`, for which the “activation” value is inactive: -8.27%. The result for `Cc1ccc(Cl)cc1N1CCN(C(=O)c2c(C)oc3ncnc(N4CCOCC4)c23)CC1` reads inactive: -7.14%; that for `O=C(CC1N=C2c3ccccc3N=C(SCc3cccc(Cl)c3)N2C1=O)NC1CCCCC1` (stereo not drawn), inactive: -6.04%; that for `CCCCCNC(=O)C1CCC(Cn2c(=O)c3sccc3n(CC(=O)N3CCCC3)c2=O)CC1` (stereo not drawn), inactive: 9.61%. Then `COc1cc(OC)c(NC(=O)c2nc(-c3ccncc3)no2)cc1Cl`, with inactive: -13%. Then `COc1ccc(NC(=O)CSc2nnc(-c3nnn(-c4ccc(F)cc4)c3C)o2)cc1`, with inactive: -23.4%.

On to `Cc1cccc(-c2noc(-c3ccc(NC4CCCC4)c([N+](=O)[O-])c3)n2)c1`, for which the “activation” value was inactive: -11.1%. Turning to `Cc1ccc(OCC(=O)Nc2cccc(C(=O)OCc3cc(=O)n4cc(C)sc4n3)c2)cc1`, the “activation” value was inactive: -0.501%. Regarding `Cc1ccc(Cl)cc1-n1c(=O)cc(N2CCN(c3ccccc3)CC2)[nH]c1=O`, the “activation” value was inactive: -8.66%. Turning to `Cc1cc2n(n1)CCCN2C(=O)Nc1ccccc1F`, the “activation” value was inactive: 3.06%. As for `CCOCN(C(=O)Cn1c(C)nc2ccccc21)c1c(C)cccc1CC`, the “activation” value was inactive: -7.59%. Turning to `Cn1c(=NC(=O)c2ccc(F)cc2)sc2cc(Br)ccc21`, the “activation” value is inactive: -16.2%. Then `COc1cccc(C(=O)Nc2ccccc2-c2nc(-c3ccc(C)cc3)no2)c1`, with inactive: -8.89%. On to `Cc1ccc(N2C(=O)c3n[nH]c(C)c3C2c2ccc(C(C)C)cc2)cc1` (stereo not drawn), for which the “activation” value was inactive: 0.402%. The result for `CCOC(=O)c1c(S(=O)(=O)N2CCN(c3ccccc3OC)CC2)c(C)n(C)c1C` reads inactive: 2.19%. The result for `CCc1ccccc1NC(=O)CC(C)n1nc(C)cc1C` (stereo not drawn) reads inactive: -20.2%. Take `CCCCCC[C@@H](CCC)C(=O)O`: the “activation” value is inactive: -6.81%. The result for `COc1cc2c(cc1OC)C(=O)C(CC1CCN(Cc3ccccc3)CC1)C2` (stereo not drawn) reads inactive: -4.62%; that for `CCCCC(CC)CN1CN(CC(CC)CCCC)CC(C)(N)C1` (stereo not drawn), inactive: -8.62%; that for `O=c1c2cc3c(cc2n(Cc2cccc(F)c2)c(=O)n1Cc1nc(-c2ccccc2)no1)OCO3`, inactive: 4.45%. For `COc1cc(OC)c(NC(=O)NCc2ccc3c(c2)CCN3C(C)=O)cc1Cl`, the “activation” value is inactive: -4.7%. Then `CC(=O)c1cccc(NC(=O)c2sc3nc4c(cc3c2N)CCCC4)c1`, with inactive: -16.8%; and `c1ccc(N2CCN(c3ncnc4[nH]ncc34)CC2)cc1`, with inactive: -25.1%; and `Cc1cccn2c(=O)c(C(=O)NCCc3ccc(Cl)cc3)cnc12`, with inactive: -1.27%.

With `CC(=O)c1ccc(NC(=O)C2CCC(CNS(=O)(=O)c3cccc4nsnc34)CC2)cc1` (stereo not drawn), the “activation” value was inactive: -29.2%. As for `CCCNS(=O)(=O)c1cc(-c2nnc3c4ccccc4c(C)nn23)ccc1OC`, the “activation” value is inactive: -14.8%. `CC(C)(C)OC(=O)N1CCC(c2c(C(=O)N3CCN(C(=O)c4ccco4)CC3)cnn2-c2ccc(Cl)cc2)CC1`: the “activation” value is inactive: -16%. Consider `CCc1ccccc1N1C(=O)N(Cc2cccc(Cl)c2)c2ccccc2S1(=O)=O`, for which the “activation” value was inactive: -3.73%.

`CCOc1ccc(NC(=O)C2CCCN(c3nnc(-n4c(C)ccc4C)s3)C2)cc1` (stereo not drawn): the “activation” value was inactive: -9.26%. Regarding `Cc1ccc(Cl)cc1NC(=O)c1cccc(NC(=O)N2CCSc3ncccc32)c1`, the “activation” value is inactive: -30.9%. Then `COCCN1C(=O)c2[nH]nc(-c3c(C)cc(C)cc3O)c2C1c1cccc(O)c1` (stereo not drawn), with inactive: 17.8%; and `CCc1ccc(NCc2cc3ccc(OC)cc3n(CC(=O)Nc3cccc(Cl)c3C)c2=O)cc1`, with inactive: -4.62%.

In the case of `Cc1ccc(-c2nnc(Nc3ccc(Br)cc3)c3ccccc23)cc1S(=O)(=O)NCc1nc2ccccc2[nH]1`, the “activation” value was inactive: -18.9%. Then `Cc1ccc(C(=O)NCc2nnnn2-c2ccc(C)c(C)c2)cc1`, with inactive: 6.25%; and `CCOc1ccc(NC(=O)CCS(=O)(=O)c2ccc3nc(C)sc3c2)cc1`, with inactive: 6.86%.

For the compound `c1coc(-c2nc3ccccn3c2Nc2ccc3c(c2)OCCO3)c1`, the “activation” value is inactive: -27.8%. With `COc1ccc(-c2cn3c(n2)sc2cc(C(=O)Nc4ccccc4F)ccc23)cc1`, the “activation” value is inactive: -9.27%. The result for `COc1ccc(-n2c(SCC(=O)N3CCCc4ccccc43)nc3c([nH]c4ccccc43)c2=O)cc1` reads inactive: -15.8%; that for `Cc1ccc(Cn2c(SCc3ccc(C(=O)NCCc4ccccc4)cc3)nc3ccncc32)cc1`, inactive: -3.16%. In the case of `CCn1cc(S(=O)(=O)c2cccc(C)c2)c(=O)c2cc(F)c(N3CCCCC3C)cc21` (stereo not drawn), the “activation” value was inactive: -5.41%. The result for `Cc1nc(-c2ccc(C)c(N3CCN(C(=O)Nc4ccc(Br)cc4)CC3)c2)no1` reads inactive: -18.2%; that for `COc1ccc(-n2c(=O)c3sc4ccccc4c3n(CC(=O)N3CCCC3)c2=O)cc1`, inactive: -15.7%. Take `CC(C)(C)OC(=O)N1CCC(c2c(C(=O)Nc3ccc4c(c3)OCO4)cnn2-c2ccc(F)cc2F)CC1`: the “activation” value is inactive: -9.17%. As to `Cc1ccc(CNC(=O)C(=O)NCC(c2cccs2)S(=O)(=O)c2cccs2)cc1` (stereo not drawn), the “activation” value is inactive: -0.293%. The result for `Cc1cc(-c2ccc(C)c(S(=O)(=O)N(Cc3cccs3)C(C)C)c2)on1` reads inactive: -7.92%. As to `COc1ccc(NC(=O)/C(C#N)=C/c2ccc(C)o2)cc1`, the “activation” value was inactive: -3.84%.

As for `CCc1ccc2occ(CC(=O)Nc3c(C(=O)Nc4ccc(Cl)cc4)oc4ccccc34)c2c1`, the “activation” value was inactive: -14.5%. Take `CN(C)CCNC(=O)c1ccc2nc(CCc3ccccc3)oc2c1`: the “activation” value was inactive: -6.23%. The result for `CN(C)c1ccc(NC(=O)Cn2c(SCc3ccc(F)cc3)nc3cccnc32)cc1` reads inactive: 22.5%; that for `CCc1ccc(NC(=O)CSC2=Nc3ccccc3C3=NC(CC(=O)NCc4ccc5c(c4)OCO5)C(=O)N23)cc1` (stereo not drawn), inactive: -10.4%; that for `Cc1ccccc1Cn1c(=O)n(CCCCC(=O)NCCc2ccccc2)c(=O)c2ccccc21`, inactive: -14.6%. Then `Cc1cccc(NC(=O)CCNS(=O)(=O)c2ccc3c(c2)CCCC(=O)N3)c1C`, with inactive: -18.3%; and `CCOC(=O)c1[nH]c2c(c1Cc1ccccc1)C(=O)CC(c1ccc(OC)cc1)C2` (stereo not drawn), with inactive: -9.12%; and `O=C(O)CCCC(=O)N1CCc2cc(S(=O)(=O)NCc3ccccc3)ccc21`, with inactive: -8.99%. For the compound `CCSc1nc2c([nH]c3ccccc32)c(=O)n1-c1ccc(OC)cc1`, the “activation” value was inactive: -8.6%. The result for `CCOC(=O)c1ccc(NC(=O)c2cnc(N3CCCC3)nc2C)cc1` reads inactive: -15%.

Regarding `CN(C)c1ccc(CNc2nc(-c3ccco3)nn2S(C)(=O)=O)cc1`, the “activation” value is inactive: -27%. In the case of `CC1CCCN(c2ncnc3c2nc2n3CCCCC2)C1` (stereo not drawn), the “activation” value was inactive: -9.52%. The result for `COCCn1c(SCC(=O)c2ccccc2)nc2cc(C(=O)NC3CCCC3)ccc2c1=O` reads inactive: 1.76%; that for `CCc1ccc2nc(N(Cc3cccnc3)C(=O)c3cccs3)sc2c1`, inactive: -50.1%. As to `CCCC(=O)Nc1ccc(NC(=O)c2sc3ccccc3c2Cl)cc1`, the “activation” value was inactive: -11%.

As to `CCCCN(C)CCCNC(=O)Cn1nc(CC)n2c(cc3sc(C)cc32)c1=O`, the “activation” value is inactive: -14.8%. As to `Cc1cc2c(cc1C)C(c1cccc(OC(C)C)c1)CC(=O)N2` (stereo not drawn), the “activation” value is inactive: -14.4%. Then `COc1ccc(C(=O)N2CCN(C(=O)COc3ccc(Br)cc3)CC2)cc1OC`, with inactive: -12.8%. Take `CCOC(=O)CSC1=Nc2ccccc2C2=NC(CCC(=O)NCc3ccccc3)C(=O)N12` (stereo not drawn): the “activation” value was inactive: 1.13%. Take `CC(=O)c1cccc(NC(=O)c2noc3c2CC(C)CC3)c1` (stereo not drawn): the “activation” value was inactive: -5.15%.

As for `COc1ccc(NC(=O)CN(c2cccc(C)c2C)S(=O)(=O)c2ccccc2)cc1OC`, the “activation” value is inactive: -2.11%. Then `CCCCNC(=O)C1CCCN(c2nnc(C)c3c(C)n(-c4ccc(Cl)cc4)nc23)C1` (stereo not drawn), with inactive: -8.02%.
